Whole data set: some 33,000 sequences, median “E-score (-0.5 to 0.5)” near -0.01, cut for the highest 2% near 0.26. The list shows a part of the results.
What follows are sequences tested against Ste12 (UniProt P13574) (assay: PBM E-score (8-mer binding enrichment) (E-score (-0.5 to 0.5)); higher = stronger / more preferred TF binding; most listed sequences are background and not binding sites). Settings: protein concentration: 200 nM; construct: GST-DNA-binding domain.
Outline: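 Full-length yeast transcription factors or their DNA-binding domains, GST-tagged and expressed with PURExpress, were applied at about 100-200 nM to universal all-10-mer Agilent arrays. These arrays had been made double-stranded by primer extension on fresh or once-stripped slides. Detection used fluorescent anti-GST, normalisation used masliner, and E-scores for ungapped eight-base words pooled with reverse complements came from the Universal PBM Analysis Suite.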

Sequence | PBM E-score
GGCTACCA | -0.221
ATGATTAG | 0.0893
TGATAAAA | 0.266
GATTTCAA | 0.159
ATGGCCCA | -0.123
TAAAAGTA | 0.211
AATCAAGA | 0.222
CCCCTCCC | 0.365
CCGAAACC | 0.142
ACTCCATG | -0.121
CACGCTAG | 0.0182
AACGGAAG | 0.11
CCGTTCAA | 0.0213
GTAATCCA | -0.129
AGAATCAA | 0.0782
CGGCGTGC | -0.0575
GGGCTAAC | -0.31
AACTCATC | 0.024
CTATTGCC | 0.00687
GCAGAGCC | -0.128
AACACTGA | 0.229
CGCGAATC | 0.0213
ACCAAGAA | 0.0288
ATACTCCC | 0.00187
AAGTAGTA | -0.0474

Sequence | PBM E-score
ACGTGGAA | 0.0639
AGGGAGAC | -0.174
CCTCTGGC | 0.169
TTCGAAAA | 0.222
TAGCAGAA | 0.135
ATTTAGCA | 0.141
AGGATGAG | 0.0299
GTTGCCCA | -0.0149
AGCTTGTG | 0.0986
GGATCCCC | -0.0778
CATCTGCA | -0.0879
CTTGGCCC | -0.0477
GTGCTACA | -0.109
CCGGCTCG | -0.0936
CGACGAGA | -0.0106
GGGAACCC | -0.258
CATGAAAA | 0.237
CACTTCGC | 0.0953
GCCTGTAC | -0.188
AAATACAA | 0.22
CGGGGGTC | -0.238
AACTGTAG | -0.0573
AAGTATCC | -0.139
CGGACACG | -0.217
AACGGTTA | 0.0444

Sequence | PBM E-score
AACTTATT | 0.333
ACACTAGC | -0.145
GCCAGCGA | -0.129
AGACCACT | -0.0927
AATAAGTC | 0.0265
CCATCAAC | -0.144
AACAGAGA | 0.043
ATGGGGCC | -0.164
CTATGTTC | 0.0314
CAATGAAG | -0.111
AATAGTAT | 0.0945
AAGCGGCG | 0.0295
AATTCTGC | 0.201
GAGTGGGC | -0.089
CACAACCA | 0.125
AGATTTGG | -0.00783
CCGACTCG | -0.0656
TACATCAA | 0.188
ACCGTATC | 0.12
CATATAAG | 0.0207
AGACAAAT | 0.217
CTTCGCTA | -0.0824
TCAGAGAA | 0.157
CGATTACC | -0.239
AGGCTAAG | -0.192

Sequence | PBM E-score
GCCTCTTA | -0.117
GTAACAAA | 0.312
CACTGACC | 0.0829
CTCTCAAC | -0.0802
AGTTCGAA | 0.146
CTTCGGTA | 0.0138
CGTGAACC | -0.103
AGAGGATG | -0.035
AACACAGG | -0.15
ACCTCACG | 0.0362
CTAATGCC | -0.165
GGTATCGA | 0.139
ACGCCTTA | -0.0631
GTATCCGA | -0.0741
CCACGGAA | -0.0956
GAAGTCGC | -0.104
TGCCCGAA | -0.143
GAGAAGCC | -0.122
GAGCTACC | -0.116
GCTGTGCC | 0.0564
CCAATAAG | 0.0854
CGACAACA | 0.153
ATTTTCCA | 0.0716
GGTCGCAC | -0.132
ACTTCCAT | 0.0326

Sequence | PBM E-score
GGGTCCTA | -0.0528
CATTGACC | 0.0502
CCACTAGG | 0.0399
AATACCGC | 0.183
CTTCATAA | 0.219
ACTGCTTG | -0.0803
ACTACAGA | 0.146
ATCCCCTG | -0.157
TGATATAA | -0.12
AGGTTTAA | 0.0245
GAGGGAGC | -0.333
CCGGCGAG | -0.0891
CGTCAGTA | -0.146
AAAACGAG | 0.131
ACAGTAGG | -0.0853
AGCGCACG | -0.01
TAGGGAGA | -0.0245
AGGCGTGC | -0.163
ATTCAGTG | 0.0191
AGACTATC | -0.148
TCCTTAGA | -0.258
CACGTCCA | -0.175
AGACCTGA | 0.0247
ATTAGTTA | 0.181
CAGCCGAC | 0.015

Sequence | PBM E-score
ATGCTGAA | 0.104
AAGCCATC | 0.0411
ATCGCGCA | 0.0139
GAACACAA | 0.00368
GTCATCAC | -0.161
GCCTCTCC | -0.136
AATATTAG | 0.159
CGGCGTAA | 0.089
CTCATACA | -0.0498
AATTCCAA | 0.133
CTTCCAGA | -0.0768
TATTAGGA | -0.0493
AAACAGAA | 0.201
CCTCACTA | -0.0589
ATCGGCCC | 0.00036
ACGCCTGC | -0.0299
GCATCCGC | -0.00053
ACTTTAAG | 0.225
CCTTTTGC | -0.0993
ACACGCAG | -0.138
GGGATAAA | 0.271
GGTCAAAC | 0.0628
CCCTCGCA | 0.0678
GCAACTGA | -0.0568
GTCGGAAC | 0.0759

Sequence | PBM E-score
GCTCAGAA | 0.0322
AGGATCCC | -0.0457
GCTCCTAA | -0.175
GATCTCGA | -0.0296
ACTGGCAG | 0.0721
AGATACAG | 0.0825
ACCTGAGT | -3e-05
AGGCCTTC | -0.102
CGACCTTC | -0.0872
CGACAGCA | -0.0436
GACATGCA | 0.0546
ATGGGTCG | 0.0354
GTCGCATA | 0.139
GCATGTGA | -0.0635
ATCCGACG | -0.00517
AGAGCGCT | -0.0685
GGTTACTA | 0.0972
AACACATC | 0.0427
AGTTGAAG | -0.0305
CCGCAGCC | -0.0732
CACATAAC | 0.13
ACACCCTA | 0.0499
